The values below come from the supplement of paper PMC11417369.

The list shows a part of the results.

This experiment deals with PF3D7_0420300 AP2 domain 1 (GST-tagged). Put plainly: gcPBM binding intensity (ln(normalized median fluorescence intensity)); higher = stronger DNA binding. A digest of the protocol: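 Binding intensity is the highest Masliner-normalised natural-log median intensity over replicate spots in either probe orientation. To obtain it, GST-tagged P. falciparum DNA-binding domains made in E. coli were incubated for 1 h on an Agilent 4 × 180k array of primer-extended double-stranded 36-bp intergenic genomic probes plus negative controls. Detection used Alexa488 anti-GST antibody with scanning at 488 nm.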
As for “TATTAAACTGGACACACACACACACCCATATATAAA [CACACA_site4579]”, the “gcPBM binding intensity (ln)” value came out at 10.2.

For the sequence “CATACATACAAACACACACACACACCCATATATATA [CACACA_site2918]”, the “gcPBM binding intensity (ln)” value worked out at 10.4.

“TTTTTAACCAAACATCAAAACATATTTTTTTGTTAT [CACACA_negctrl_site385]”: the “gcPBM binding intensity (ln)” value was 8.89.

“GTATACCTTTTGACATGTACGTATGTATATTTGGGT [XGTACX_site720]”: the “gcPBM binding intensity (ln)” value was found to be 9.29.

With “ACTACATTATGTCATACATGCATACATACGTGGTTT [TGCATGCA_site732]”, the “gcPBM binding intensity (ln)” value turned out to be 9.39.

On to “CATTAAAAGTATAATTGTACTTTTCATTTATATATT [XGTACX_site7536]”, for which the “gcPBM binding intensity (ln)” value is 9.24.

For the sequence “AGTAATTTAAGGAATACACACAAGAAAAAAATAAGA [CACACA_site6177]”, the “gcPBM binding intensity (ln)” value came out at 9.92.

For the sequence “TAATATATATATATATGTACATATATATTATGTATA [XGTACX_site4690]”, the “gcPBM binding intensity (ln)” value worked out at 9.07.

For “TTCTCAAAATTAAAATAACAGATTAACGAACTAACG [CACACA_negctrl_site1720]”, the “gcPBM binding intensity (ln)” value was 9.2.

In the case of “AGATTATTTAGAATGTGTACATATTACACATACATG [XGTACX_site8634]”, the “gcPBM binding intensity (ln)” value amounted to 9.31.

“TACTTTCAAAAGATCACACATATATATATATATATA [CACACA_site5630]”: the “gcPBM binding intensity (ln)” value was found to be 9.11.

With “TAATAACATACAGACACACACGTAAAAGCACGTGTA [CACACA_site4299]”, the “gcPBM binding intensity (ln)” value was determined as 9.63.

Regarding “ATAAATAAATAAGTACATATATATATGTATATATAT [TGCATGCA_negctrl_site223]”, the “gcPBM binding intensity (ln)” value is 9.41.

Regarding “ATGACATGTTCTAAATGTACATTTTTTAACCCTTTT [XGTACX_site1858]”, the “gcPBM binding intensity (ln)” value worked out at 9.3.

As for “TATGGTTACATTATATGTACTAAACGAATATTTTTA [XGTACX_site5694]”, the “gcPBM binding intensity (ln)” value is 9.04.

Take “TATACAAGTATATAGGTGCATATATAAGTATATATT [GTGCAC_site9994]”: the “gcPBM binding intensity (ln)” value was 9.26.

“TATGTTTTTACATATTGTACATATTCTTGTAATACG [XGTACX_site1179]”: the “gcPBM binding intensity (ln)” value was determined as 9.23.

As to “ATTATAATGTTAATGTGTACATATGATTCCTTAATT [XGTACX_site181]”, the “gcPBM binding intensity (ln)” value was found to be 9.37.

For “TATGTGTGCAAAAACTGTACACATTAAAGGTATATA [XGTACX_site7627]”, the “gcPBM binding intensity (ln)” value stood at 9.62.

Take “CATATAAAAGGACACACACACACATATAAATATGTA [CACACA_site6568]”: the “gcPBM binding intensity (ln)” value came out at 10.

Regarding “TGCTATTTTATTTATTCTTTTATAAAAGTATAATAT [XGTACX_negctrl_site358]”, the “gcPBM binding intensity (ln)” value was found to be 9.25.

With “ATTTTTATAGAATGAACACACATATTATAGCATTTA [CACACA_site6842]”, the “gcPBM binding intensity (ln)” value was determined as 9.28.

“ATAAAAAAAATTTGCACACCTTCAAAGTAATATATA [CACACA_site1584]”: the “gcPBM binding intensity (ln)” value stood at 9.4.

As to “TAATTTTTTTTTTTTTTTTTTGTACTTCATTTTTAT [CACACA_negctrl_site1395]”, the “gcPBM binding intensity (ln)” value was found to be 9.21.

On to “AAAAAAAAAAAAAGTACATGCAATATGGATCTTAAA [TGCATGCA_site367]”, for which the “gcPBM binding intensity (ln)” value stood at 9.41.

Regarding “CATAGATACATACACGCACACACATATATATATATA [CACACA_site13]”, the “gcPBM binding intensity (ln)” value turned out to be 9.87.

Take “GTATTACCTTATTATTGTACTTTCATGATATATATG [XGTACX_site5382]”: the “gcPBM binding intensity (ln)” value was 9.69.

Take “TTAATGAATGGACACACACACATATATATATATATT [CACACA_site5294]”: the “gcPBM binding intensity (ln)” value was 9.79.

In the case of “TACACAAGAAAATTCACACACACACCCATATATATA [CACACA_site3879]”, the “gcPBM binding intensity (ln)” value came out at 10.1.

“AACATACATGTATATAGTACATATTACATCTGATAC [XGTACX_site3649]”: the “gcPBM binding intensity (ln)” value turned out to be 9.34.

Turning to “ATGTAATTATAAGATTAATATACATAATTATATGTA [GTGCAC_negctrl_site458]”, the “gcPBM binding intensity (ln)” value turned out to be 9.11.

With “AAAAGAAATATTTATACACACACACTAACATATATA [CACACA_site8580]”, the “gcPBM binding intensity (ln)” value was 10.1.

Consider “GTGAAAAAAAACATATGTACTTATACACTAATCTAT [XGTACX_site7600]”, for which the “gcPBM binding intensity (ln)” value was determined as 9.31.

With “TTATCATTTTAATGGTGTACTCAATAAAAACTTTAA [XGTACX_site4595]”, the “gcPBM binding intensity (ln)” value turned out to be 8.87.

Turning to “TTATATATAATTACATGTACGTAGTATTATTTAAAT [XGTACX_site3418]”, the “gcPBM binding intensity (ln)” value is 9.08.

Consider “TGGTAAAGGAGCAAGATGATAAATCTCCATAACTTT [CACACA_negctrl_site492]”, for which the “gcPBM binding intensity (ln)” value amounted to 9.06.

Regarding “ATGTCTATAATAAGAACACACATATATTTAATTTAA [CACACA_site7394]”, the “gcPBM binding intensity (ln)” value was 9.29.

“CTATATTCGTTTAATAGTACATATATAACTAGACAA [XGTACX_site5770]”: the “gcPBM binding intensity (ln)” value is 9.2.

Regarding “TATATATATATGTATACACACATACAAATATGTAAA [CACACA_site9238]”, the “gcPBM binding intensity (ln)” value is 9.28.

On to “GTTGGTACCTTACTTTTACACACTTTTTTTTTTTTT [CACACA_site8441]”, for which the “gcPBM binding intensity (ln)” value worked out at 9.84.

For “TATATATAAAAAAGCACACATACATACATACATAAT [CACACA_site890]”, the “gcPBM binding intensity (ln)” value was determined as 9.71.

On to “TTTTCACTTTTAAAAACATGCATACTTTATAAAATA [TGCATGCA_site967]”, for which the “gcPBM binding intensity (ln)” value is 8.93.

In the case of “TACACAAGCGGACACACACACATATATATATATATA [CACACA_site4832]”, the “gcPBM binding intensity (ln)” value came to 9.81.

Turning to “AACATTCTAAAACACACACACACATATATATATATA [CACACA_site1052]”, the “gcPBM binding intensity (ln)” value came out at 10.

Turning to “AAAAAAAAAAAACACACACACACATAAATATATATA [CACACA_site149]”, the “gcPBM binding intensity (ln)” value is 10.2.

Consider “TGTAAATTTGGCATCACACATAAATAAACATATAAA [CACACA_site4497]”, for which the “gcPBM binding intensity (ln)” value was 9.4.

With “TATTAACATATATAAAGTACATTAAACAACATTGTA [XGTACX_site7667]”, the “gcPBM binding intensity (ln)” value came to 9.33.

In the case of “AATAAATATAGATTCACACACAAACATATATAAATA [CACACA_site7814]”, the “gcPBM binding intensity (ln)” value was 9.8.

Turning to “AAAAAAAAAATATATATATATATATATATATAATTT [GTGCAC_negctrl_site32]”, the “gcPBM binding intensity (ln)” value is 8.93.

“AAGAAAAAAATTTATACAAGAATTTTTTATTATTAA [TGCATGCA_negctrl_site587]”: the “gcPBM binding intensity (ln)” value turned out to be 8.9.

Regarding “TAATTGTACGCCAATACACACAGAATTAGAATGTAG [CACACA_site102]”, the “gcPBM binding intensity (ln)” value is 9.48.

On to “ATAAATAAATGGTGTTGTACTCTATTATATATATAT [XGTACX_site7835]”, for which the “gcPBM binding intensity (ln)” value was determined as 9.54.

Turning to “TGTTAATTAAAGGACTGTACACTAATAATTCTATAA [XGTACX_site5195]”, the “gcPBM binding intensity (ln)” value stood at 9.13.

“TCATATGTTTCATGTTGTACATTGAAAGTTTGGCTA [XGTACX_site3202]”: the “gcPBM binding intensity (ln)” value was found to be 9.05.

Take “GTTCTAATATATTGCACACGTAAAAATATAGGTAAT [CACACA_site886]”: the “gcPBM binding intensity (ln)” value was 9.5.

For the sequence “AAATATGTACATATTATATATATATAATATATATTG [TGCATGCA_negctrl_site438]”, the “gcPBM binding intensity (ln)” value was determined as 9.22.
